The full ranking holds about 2,900 compounds; the median of “IRF Lucia reporter activity, fold change vs agonist alone” is about 0.9, and the highest 2% start at about 2.8. Some of the results follow.

Test [1] has as its system RAW-Dual. In words: IRF Lucia reporter activity, fold change vs agonist alone; cytotoxicity flag (confluency mask): not cytotoxic; higher = enhanced IRF activity. The gist of the method:
(§1)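 Library stock was pin-tooled at 50 nL into 384-well plates of RAW-Dual macrophages (50,000 cells/well, DMEM), followed 1 h later by a PRR agonist, and the cells were kept at 37 °C, 5% CO2. Supernatant collected after 20 hours was read for IRF by QuantiLuc luminescence and for NF-κB by QuantiBlue absorbance at 620 nm. Reporter activity is fold change over agonist-alone wells, and a well counted as cytotoxic when its IncuCyte confluency was below 70% of agonist controls in both mask sets.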

Test [2] relates to RAW-Dual. In words: IRF Lucia reporter activity, fold change vs agonist alone; higher = enhanced IRF activity. The settings on record: agonist: MPLA (TLR4) […]. A digest of the protocol: as §1
The subject of test [3] is RAW-Dual. In words: IRF Lucia reporter activity, fold change vs agonist alone; cytotoxicity flag (confluency mask): cytotoxic (confluency <70% of control); higher = enhanced IRF activity. The gist of the method: as §1
[4] abbreviates: agonist: 3'3'-cGAMP (STING) 10 ug/mL.
Setting [5] is: library stock concentration (final ~1000-fold dilution): 10 mM, cytotoxicity flag (confluency mask): not cytotoxic.
Where [6] appears, read: library stock concentration (final ~1000-fold dilution): 10 mM, cytotoxicity flag (confluency mask): cytotoxic (confluency <70% of control).

With `Cn1cc(C=C2C(=O)Nc3cccnc32)c2ccccc21` (library stock concentration (final ~1000-fold dilution): 10 mM), the entries for the “IRF Lucia reporter activity” value with RAW-Dual [1] (setting [4]) and with RAW-Dual [1] (agonist: LPS (TLR4) 0.1 ug/mL) were 0.515 and 0.452, respectively.
Take `Cn1cc(C=C2C(=O)Nc3cccnc32)c2ccccc21`: the “IRF Lucia reporter activity” value in the test with RAW-Dual [2] (setting [5]) was 0.761.
In the case of `CN1CCN(CCCN2c3ccccc3Sc3ccc(Cl)cc32)CC1.O=C(O)/C=C\C(=O)O.O=C(O)/C=C\C(=O)O` (library stock concentration (final ~1000-fold dilution): 10 mM), the “IRF Lucia reporter activity” value in the test on RAW-Dual [3] (setting [4]) turned out to be 0.64; in the test with RAW-Dual [3] (agonist: LPS (TLR4) 0.1 ug/mL), 0.589.
On to `CN1CCN(CCCN2c3ccccc3Sc3ccc(Cl)cc32)CC1.O=C(O)/C=C\C(=O)O.O=C(O)/C=C\C(=O)O`, for which the “IRF Lucia reporter activity” value with RAW-Dual [2] (setting [6]) is 0.883.
`O=c1c2cc(O)c(O)cc2oc2cc(O)c([C@@H]3O[C@H](CO)[C@@H](O)[C@H](O)[C@H]3O)c(O)c12` (library stock concentration (final ~1000-fold dilution): 10 mM): the “IRF Lucia reporter activity” value with RAW-Dual [1] (setting [4]) came out at 0.991; in the test on RAW-Dual [1] (agonist: LPS (TLR4) 0.1 ug/mL), 0.946.
As for `COc1ccccc1O` (library stock concentration (final ~1000-fold dilution): 10 mM), the “IRF Lucia reporter activity” value in the test on RAW-Dual [1] (setting [4]) was 0.882; in the test on RAW-Dual [1] (agonist: LPS (TLR4) 0.1 ug/mL), 1.09.
Consider `CNC1C(O)C(OC2C(NC(=O)C(O)CN)CC(N)C(OC3OC(CN)C(O)C(O)C3O)C2O)OCC1(C)O.O=S(=O)(O)O` (stereo not drawn) (library stock concentration (final ~1000-fold dilution): 10 mM water), for which the “IRF Lucia reporter activity” value was 1.07 with RAW-Dual [1] (setting [4]) and 1.05 with RAW-Dual [1] (agonist: LPS (TLR4) 0.1 ug/mL).
In the case of `CNC1C(O)C(OC2C(NC(=O)C(O)CN)CC(N)C(OC3OC(CN)C(O)C(O)C3O)C2O)OCC1(C)O.O=S(=O)(O)O` (stereo not drawn), in the test on RAW-Dual [2] (library stock concentration (final ~1000-fold dilution): 10 mM water, cytotoxicity flag (confluency mask): not cytotoxic), the “IRF Lucia reporter activity” value came to 1.25.
`COc1cc(CCC(C)=O)ccc1O` (library stock concentration (final ~1000-fold dilution): 10 mM): the entries for the “IRF Lucia reporter activity” value with RAW-Dual [1] (setting [4]) and with RAW-Dual [1] (agonist: LPS (TLR4) 0.1 ug/mL) were 0.901 and 0.996, respectively.
The corresponding values for `O=C1N=C(NCc2cccs2)S/C1=C\c1ccc2ncccc2c1` (library stock concentration (final ~1000-fold dilution): 10 mM) are 0.427 and 0.318.
As for `CC(=O)OC1CC2CCC3C(CCC4(C)C3CC([N+]3(C)CCCCC3)C4OC(C)=O)C2(C)CC1N1CCCCC1` (stereo not drawn), in the test on RAW-Dual [2] (setting [5]), the “IRF Lucia reporter activity” value turned out to be 1.02.
Regarding `CC(=O)OC1CC2CCC3C(CCC4(C)C3CC([N+]3(C)CCCCC3)C4OC(C)=O)C2(C)CC1N1CCCCC1` (stereo not drawn) (library stock concentration (final ~1000-fold dilution): 10 mM), the “IRF Lucia reporter activity” value with RAW-Dual [1] (setting [4]) was determined as 0.993; in the test with RAW-Dual [1] (agonist: LPS (TLR4) 0.1 ug/mL), 1.2.
As to `Cc1c[nH]c2nc(Nc3ccc(N4CCN(C)CC4)c(F)c3)nc(-c3cccc(CC#N)c3)c12` (library stock concentration (final ~1000-fold dilution): 10 mM), the entries for the “IRF Lucia reporter activity” value with RAW-Dual [3] (setting [4]) and with RAW-Dual [3] (agonist: LPS (TLR4) 0.1 ug/mL) were 0.00805 and 0.0101, respectively.
Turning to `COc1cnc(NS(=O)(=O)c2ccc(N)cc2)nc1` (library stock concentration (final ~1000-fold dilution): 10 mM), the “IRF Lucia reporter activity” value in the test with RAW-Dual [1] (setting [4]) turned out to be 1.08; with RAW-Dual [1] (agonist: LPS (TLR4) 0.1 ug/mL) it was 0.941.
Turning to `COc1cnc(NS(=O)(=O)c2ccc(N)cc2)nc1`, the “IRF Lucia reporter activity” value in the test on RAW-Dual [2] (setting [5]) came to 0.961.
In the case of `C=CC(=O)N1CCN(CCCn2c(=O)c(-c3c(Cl)c(OC)cc(OC)c3Cl)cc3cnc(NC)nc32)CC1` (library stock concentration (final ~1000-fold dilution): 10 mM), the figures for the “IRF Lucia reporter activity” value with RAW-Dual [1] (setting [4]) and with RAW-Dual [1] (agonist: LPS (TLR4) 0.1 ug/mL) were 0.583 and 0.664, respectively.
Regarding `COc1cc(C2c3cc4c(cc3C(OC3OC5COC(C)OC5C(O)C3O)C3COC(=O)C23)OCO4)cc(OC)c1O` (stereo not drawn), in the test on RAW-Dual [2] (setting [5]), the “IRF Lucia reporter activity” value turned out to be 0.943.
For `COc1cc(C2c3cc4c(cc3C(OC3OC5COC(C)OC5C(O)C3O)C3COC(=O)C23)OCO4)cc(OC)c1O` (stereo not drawn) (library stock concentration (final ~1000-fold dilution): 10 mM), the “IRF Lucia reporter activity” value with RAW-Dual [1] (setting [4]) stood at 0.618; with RAW-Dual [1] (agonist: LPS (TLR4) 0.1 ug/mL), 0.92.
On to `COc1ccc(C2CC(=O)c3c(O)cc(O)cc3O2)cc1O` (stereo not drawn), for which the “IRF Lucia reporter activity” value in the test on RAW-Dual [2] (setting [5]) is 0.881.
`COc1ccc(C2CC(=O)c3c(O)cc(O)cc3O2)cc1O` (stereo not drawn) (library stock concentration (final ~1000-fold dilution): 10 mM): the “IRF Lucia reporter activity” value stood at 0.902 in the test on RAW-Dual [1] (setting [4]) and 0.842 in the test with RAW-Dual [1] (agonist: LPS (TLR4) 0.1 ug/mL).
The corresponding values for `CC#CC(=O)N1CCCC1c1nc(-c2ccc(C(=O)Nc3ccccn3)cc2)c2c(N)nccn12` (stereo not drawn) (library stock concentration (final ~1000-fold dilution): 10 mM) are 0.499 and 0.827.
Turning to `CC(C)c1cc(C(=O)N2Cc3ccc(CN4CCN(C)CC4)cc3C2)c(O)cc1O` (library stock concentration (final ~1000-fold dilution): 10 mM), the “IRF Lucia reporter activity” value in the test on RAW-Dual [3] (setting [4]) was 0.851; in the test with RAW-Dual [3] (agonist: LPS (TLR4) 0.1 ug/mL), 1.03.
For the compound `CC(C)c1cc(C(=O)N2Cc3ccc(CN4CCN(C)CC4)cc3C2)c(O)cc1O`, the “IRF Lucia reporter activity” value in the test with RAW-Dual [2] (setting [6]) turned out to be 2.27.
On to `CN1CCC(COc2cnc(-c3cccc(Cn4nc(-c5cccc(C#N)c5)ccc4=O)c3)nc2)CC1`, for which the “IRF Lucia reporter activity” value in the test on RAW-Dual [2] (setting [5]) was 1.37.
Regarding `CN1CCC(COc2cnc(-c3cccc(Cn4nc(-c5cccc(C#N)c5)ccc4=O)c3)nc2)CC1` (library stock concentration (final ~1000-fold dilution): 10 mM), the “IRF Lucia reporter activity” value with RAW-Dual [1] (setting [4]) stood at 0.676; with RAW-Dual [1] (agonist: LPS (TLR4) 0.1 ug/mL), 3.96.
For the compound `CCOC(=O)C1=C[C@]2(CC)CCCN3CCc4c(n1c1ccccc41)[C@@H]32` (library stock concentration (final ~1000-fold dilution): 10 mM), the entries for the “IRF Lucia reporter activity” value in the test on RAW-Dual [1] (setting [4]) and in the test on RAW-Dual [1] (agonist: LPS (TLR4) 0.1 ug/mL) were 1.11 and 1.39, respectively.

For the origin of these results see the supplement of paper PMC10037445.
